Results as given in article PMC6476926, “Dichloro-Phenyl-Benzotriazoles: A New Selective Class of Human Respiratory Syncytial Virus Entry Inhibitors” (Frontiers in Chemistry, 2019).

Biological target: RSV F-glycoprotein (Human respiratory syncytial virus A, UniProt C3UPB4)
Assay: cell-based

Row | SMILES | EC50
1 | COc1cc(C(=O)Nc2ccc(-n3nc4cc(Cl)c(Cl)cc4n3)cc2)cc(OC)c1OC [8d, N-[4-(5,6-dichloro-2H-benzo[d][1,2,3]triazol-2-yl)phenyl]-3,4,5-trimethoxybenzamide] | 4.5 µM
2 | CCCNC(=O)Nc1ccc(-n2nc3cc(Cl)c(Cl)cc3n2)cc1 [10b, 1-[4-(5,6-dichloro-2H-benzo[d][1,2,3]triazol-2-yl)phenyl]-3-propylurea] | 3.9 µM
3 | O=C(Nc1ccc(-n2nc3cc(Cl)c(Cl)cc3n2)cc1)NC1CCCCC1 [10d, 1-[4-(5,6-dichloro-2H-benzo[d][1,2,3]triazol-2-yl)phenyl]-3-cyclohexylurea] | 3.2 µM
